The campaign covered roughly 45,000 compounds. About 200 (0.44%) were called active. Another 7% or so got no clear call; they are omitted. Calls follow the shape of the dose curve; as a rule, active = well fitted activation curve with a large enough effect; inconclusive = small, poorly fitted or top-dose-only effect; inactive = no such curve, though single readings can be large or run the other way. The list shows a part of the results.

The test can be described thus: qHTS of TDP-43 Inhibitors: NCGC Sytravon Library Screen. Also: 0% is about no effect; nearly all actives have a fitted effect of over 55% in size. The note with it: yeast TDP-43 toxicity rescue, BacTiter-Glo growth, 24 h; series mostly up to 46.1 µM; growth rescue (activation): at the top concentration. The procedure, abridged: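 TDP-43-expressing yeast, pregrown in raffinose, seeded at OD600 0.02 in galactose medium with compound for 24 hr at 30 deg C. Growth read by BacTiter-Glo luminescence, so rescue of toxicity appears as activation.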
Background: qHTS replaces the single test concentration by a dilution series.
On to `COc1ccc2cc(S(=O)(=O)Nc3ccccn3)ccc2c1`, for which the “growth rescue (activation)” value was inactive: 16%.
To `CN(C)/C=C(\C#N)C(=O)N/N=C/c1ccccc1` belongs inactive: -2.17%.
As for `Nc1nc(-c2ccc3c(c2)CCCC3)c(CC(=O)O)s1`, the figure is inactive: 19.7%.
As for `Cc1cc(S(=O)(=O)N2CCOCC2)ccc1OCC(=O)NCc1ccco1`, the figure is inactive: -6.03%; as for `COc1ccc(C(=O)CNc2ccccc2Br)cc1`, inactive: -12.5%; as for `O=c1c2ccccc2nc(/C=C/c2cccnc2)n1Cc1ccccc1`, inactive: 21.5%.
With `O=C(NC(Cc1ccccc1)C(=O)O)/C(=C\c1ccco1)NC(=O)c1ccccc1` (centres undefined), the “growth rescue (activation)” value was inactive: -10.6%.
To `CCOc1ccc(NCc2cccn2-c2nnc(N3CCC(C(=O)NCCc4ccc(OCC)c(OCC)c4)CC3)s2)cc1` belongs inactive: 12.1%; to `O=C(NCc1ccc2c(c1)OCO2)C(=S)N1CCOCC1`, inactive: 12.4%.
As for `COc1ccccc1S(=O)(=O)Nc1cccc(-c2nnc3n2CCCCC3)c1`, the figure is inactive: -6.69%.
With `COc1ccc(C(C)C)cc1-c1cc(C(=O)NCc2cccc(C(F)(F)F)c2)[nH]n1`, the “growth rescue (activation)” value was inactive: 11.4%.
`C=CCN(c1ccccc1)S(=O)(=O)c1cccc(C(=O)Nc2nc3ccccc3[nH]2)c1`: the “growth rescue (activation)” value is inactive: 1.47%.
To `CCc1ccc(NC(=O)C(=O)NCCN2CCN(S(=O)(=O)c3ccccc3)CC2)cc1` belongs inactive: 5.84%; to `CCC(=O)NC(=S)Nc1cccc(NC(=O)c2ccccc2)c1`, inactive: 15%.
To `COc1ccc(OCC(O)CNCc2ccco2)cc1` (centres undefined) belongs inactive: 19.2%.
`CCOc1ccc(/C(O)=C2/C(=O)C(=O)N(c3ccccn3)C2c2ccc(Cl)cc2)c(C)c1` (centres undefined): the “growth rescue (activation)” value was inactive: -38.8%.
As to `CCOC(=O)c1c(CS(=O)(=O)c2ccccc2)n(C)c2cc(Br)c(O)c(CN(C)C)c12`, the “growth rescue (activation)” value was inactive: 3.96%.
As for `COc1cc(C=Nc2cccc(C)c2)c(O)c([N+](=O)[O-])c1`, the figure is inactive: 19.2%; as for `O=C(NCc1cccc(C(F)(F)F)c1)c1csc(COCCO)n1`, inactive: 18.5%.
To `Cc1nc(C(F)(F)F)ccc1C(=O)N1CCC1(C)C(=O)NS(=O)(=O)c1ccc(Cl)cc1` (centres undefined) belongs inactive: 1.7%; to `COc1cc2oc(=O)c3c(c2cc1OCC(=O)c1c(C)n(C)c2ccccc12)CCCC3`, inactive: 14.8%; to `FC(F)Oc1ccc(-c2csc(=Nc3cccnc3)n2CC2CCCO2)cc1` (centres undefined), inactive: 10.9%.
On to `COc1ccc(C(=O)CSc2nnc(-c3ccco3)o2)cc1`, for which the “growth rescue (activation)” value was inactive: 9.55%.
To `O=C(CCCCl)Nc1nc(-c2ccc3c(c2)OCCO3)cs1` belongs inactive: 29.5%; to `COc1cc(NC(=O)CCCNC(=O)Cn2cnc3sc(C)c(C)c3c2=O)cc(OC)c1OC`, inactive: -6.86%.
To `Cc1ccc[n+](CC(=O)/C=C2\N(C)c3ccccc3C2(C)C)c1` belongs inactive: 13.8%.
Regarding `Cc1cccc(C)c1OCc1n[nH]c(=S)n1N`, the “growth rescue (activation)” value was inactive: -3.93%.
As for `Cc1cc(NS(=O)(=O)c2ccc(NC(=O)c3cccc(OC(F)F)c3)cc2)nc(C)n1`, the figure is inactive: 7.53%; as for `O=C(Cc1ccc(F)cc1)Nc1nc(-c2ccc(F)cc2)cs1`, inactive: 21.7%.
To `COc1cccc(CN2CCN(C(=O)c3cccs3)CC2)c1OC` belongs inactive: -5.13%; to `Cc1nn(C)c(Cl)c1C(=O)NC(C(=O)O)c1ccccc1` (centres undefined), inactive: -4.55%; to `Cc1cc2ccccc2c(=O)n1CC(=O)N1CCN(c2cccc(Cl)c2)CC1`, inactive: 10.3%.
As for `O=S(=O)(c1ccc(Br)cc1)c1cnc2ccccc2n1`, the figure is inactive: -2.69%.
On to `N#Cc1c(-c2ccco2)nc(NCC2CCCO2)[nH]c1=O` (centres undefined), for which the “growth rescue (activation)” value was inactive: 11.6%.
To `Cc1cccc(CC2S/C(=N/N=C/c3ccco3)N(c3ccccc3)C2=O)c1` (centres undefined) belongs inactive: 9.68%; to `Cc1cc(C)cc(C(O)c2ncc(-c3ccccc3F)[nH]2)c1` (centres undefined), inactive: 11.8%; to `CCCCN(CC)Cc1ccc(CNC(=O)Nc2ccc(Cl)cc2)o1`, inactive: -31.7%.
To `Cc1cnn(-c2nc(-c3ccccc3)cc(-c3ccccc3)n2)c1` belongs inactive: 10.2%.
For `O=C(NCc1cccnc1)c1cc(C2CCCN(C(=O)CCCc3ccccc3)C2)on1` (centres undefined), the “growth rescue (activation)” value is inactive: 2.36%.
To `O=S(=O)(NCC1CCCO1)c1ccc(-c2ccc(Cl)cc2)cc1` (centres undefined) belongs inactive: -6.84%; to `COc1ccc(C2C(C(=O)NCc3ccccn3)CCC(=O)N2c2cc(OC)c(OC)c(OC)c2)cc1` (centres undefined), inactive: 6.6%; to `O=C(NN1CCOCC1)c1ccc(Cl)s1`, inactive: 5.72%.
As to `CC(=O)c1c(C)[nH]c(C(=O)COC(=O)c2ccc(C)s2)c1C`, the “growth rescue (activation)” value is inactive: 11.9%.
For `Cc1cccc(/C=N/NC(=O)c2ccc(NC(=O)c3ccccc3Cl)cc2)n1`, the “growth rescue (activation)” value is inactive: 4.13%.
Take `CC1(c2cccc(Br)c2)NC(=O)NC1=O` (centres undefined): the “growth rescue (activation)” value is inactive: -17.6%.
With `Cc1ccc(S(=O)(=O)NCCc2nnc(SCc3cccnc3)n2C)cc1`, the “growth rescue (activation)” value is inactive: -3.02%.
To `O=C(NC(NC(=S)Nc1ccccc1O)C(Cl)(Cl)Cl)c1ccco1` (centres undefined) belongs inactive: 17.1%.
To `C[N+](C)(C)CCN1C(=O)CSC1=O` belongs inactive: -11.6%.
As for `O=C(c1cc(-c2ccc(Cl)c(Cl)c2)on1)N1CCCCCC1`, the figure is inactive: -10.6%; as for `O=C(c1cccnc1)N1N=C(C2CC2)CC1(O)C(F)(F)F` (centres undefined), inactive: -13.9%.
For the compound `Cn1c(SCC(=O)N2CCc3ccccc32)nnc1-c1ccc(S(=O)(=O)N2CCCC2)cc1`, the “growth rescue (activation)” value is inactive: -4.59%.
To `CCCCC(=O)N(C)c1c(C)nc2ccc(C(=O)N3CCN(S(=O)(=O)CC)CC3)cn12` belongs inactive: 17.9%.
As for `CCCN1C(=O)c2cc(C(=O)Nc3ccc(OC)c(OC)c3)ccc2C1Nc1ccc(OC)c(OC)c1` (centres undefined), the figure is inactive: -3.26%; as for `O=C(NNC(=O)c1cc(-c2ccccc2)n(-c2ccccc2)n1)c1cccc([N+](=O)[O-])c1`, inactive: 19.3%; as for `C/C(Cc1ccccc1)=N\NC(=O)CNC(=O)c1ccc(Cl)cc1Cl`, inactive: 9.24%.
On to `CO/N=C/c1cccn1-c1nccc(N(C)C)c1C#N`, for which the “growth rescue (activation)” value is inactive: -7.73%.
To `O=C1/C(=C/c2cccc(F)c2)SC(=S)N1NS(=O)(=O)c1ccccc1` belongs inactive: 1.07%; to `CCCCc1cc(=O)oc2cc(O)cc(O)c12`, inactive: 0.295%.
As for `Cc1cc(C)nc(Sc2ccc([N+](=O)[O-])cc2[N+](=O)[O-])n1`, the figure is inactive: 11.9%; as for `C=CCOc1cccc(CNn2nnnc2N)c1`, inactive: 1.64%.
As for `O=C(Nc1cccc(Cl)c1)c1cc(-c2ccco2)on1`, the figure is inactive: 16.1%; as for `COc1cc(/C=C/C(=O)NC(C)(C)C)ccc1OCc1ccccc1`, inactive: 27.9%; as for `COc1ccc(Cl)cc1/C=C1/C(=O)ON=C1C`, inactive: -20.3%.
In the case of `Cc1cc(=O)[nH]c(N/N=C/c2ccc(Br)s2)n1`, the “growth rescue (activation)” value is inactive: 16.1%.
As for `Cn1cc(C(=O)N/N=C/C=C/c2ccccc2)ccc1=O`, the figure is inactive: 18.4%; as for `N#CC(C#N)=C1C=CC=CN1/C(=C\c1ccco1)C(=O)c1ccc(Cl)cc1`, inactive: -7.03%.
`CCCCCOc1ccc(NC(=O)C(=O)NCCC2=CCCCC2)cc1`: the “growth rescue (activation)” value is inactive: 0.839%.
To `O=C(Cn1cccc1C(=O)c1ccccc1)NCc1ccc(Cl)cc1` belongs inactive: 20.8%; to `COc1ccc(C(=O)Nc2ccccc2)cc1NC(=O)c1ccc([N+](=O)[O-])cc1`, inactive: 8.35%.

Source of the values: PubChem BioAssay AID1347073 (National Center for Advancing Translational Sciences (NCATS), 2019).
